Laboratory results: PMC11231238, “SPRING licenses S1P-mediated cleavage of SREBP2 by displacing an inhibitory pro-domain” (Nature Communications, 2024)
Changes are numbered by the printed parent chain. Names may count otherwise. Results are given in words; binding and its absence hold for the method and conditions named. For some assays here: In cells and extracts the contact can be indirect. Some entries that bind do so weakly or less than the wild type. Where a sequence is shown, tags or fusion partners need not be part of it.

Columns and labels:
[1] = target: T1, SPRING_(ecto)-His10 (human) (UniProt Q9H741); experiment: SEC-MALS; co-purified S1P_(ecto)-SPRING_(ecto) complex, 400 ug at 2 mg/mL, 0.5 mL/min, gel filtration buffer; both purified
T1 sequence: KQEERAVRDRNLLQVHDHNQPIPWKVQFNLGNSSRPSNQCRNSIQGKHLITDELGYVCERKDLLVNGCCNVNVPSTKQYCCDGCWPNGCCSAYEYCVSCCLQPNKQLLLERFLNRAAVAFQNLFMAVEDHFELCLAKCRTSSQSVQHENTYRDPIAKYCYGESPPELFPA

[2] = target: T1, SPRING_(ecto)-His10 (human); experiment: mass photometry; co-purified S1P_(ecto)-SPRING_(ecto) complex, 100 nM stock in PBS, 1.8 uL added to 16.2 uL PBS; Refeyn TwoMP; both purified
[3] = target: T1, SPRING_(ecto)-His10 (human); experiment: pull-down + SEC; NiNTA affinity chromatography through the His10 tag from HEK 293S GnTI- supernatants, then Superdex 200 gel filtration; 150 mM NaCl, 50 mM HEPES-NaOH pH 7.5; wash with 50 mM imidazole; Coomassie-stained SDS-PAGE
[4] = target: T1, SPRING_(ecto)-His10 (human); experiment: cryo-EM structure; co-purified S1P_(ecto)-3xFLAG/SPRING_(ecto)-His10 complex, 0.6-0.7 mg/mL on grids; Titan Krios 300 kV; both purified
[5] = target: T2, SPRING_(ecto)-HA (human) (UniProt Q9H741); experiment: co-IP; HEK 293T supernatants of co-transfected cells; anti-HA agarose holds SPRING_(ecto)-HA, 1 h at 4 °C; washes in 150 mM NaCl, 50 mM HEPES-NaOH pH 7.5; elution with 200 mM glycine pH 3.5; immunoblot anti-HA and anti-His
T2 sequence: T1 sequence

[6] = target: T3, FLAG-S1P_(ecto)-His10, matured C-form (human, UniProt Q14703 187-998); experiment: pull-down; HEK 293T supernatants of co-transfected cells with 50 mM imidazole; NiNTA resin holds the His10 tag of S1P_(ecto), 1-2 h at 4 °C; washes in 150 mM NaCl, 50 mM HEPES-NaOH pH 7.5, 50 mM imidazole; elution with 300 mM imidazole; immunoblot anti-HA, anti-His, anti-FLAG
T3 construct: human S1P (MBTPS1); expressed as IgK leader-FLAG-residues 23-998-His10; after autoproteolysis the His10-bearing C-form; The N-terminal FLAG tag leaves with the A-domain; also called WT S1P_(ecto); C-form of S1P_(ecto); source: HEK 293S GnTI- (BacMam baculovirus), secreted, purified (NiNTA, gel filtration); HEK 293T, transfected, secreted, in supernatant; not shown: His10, C-terminal, kept
T3 sequence (looked up): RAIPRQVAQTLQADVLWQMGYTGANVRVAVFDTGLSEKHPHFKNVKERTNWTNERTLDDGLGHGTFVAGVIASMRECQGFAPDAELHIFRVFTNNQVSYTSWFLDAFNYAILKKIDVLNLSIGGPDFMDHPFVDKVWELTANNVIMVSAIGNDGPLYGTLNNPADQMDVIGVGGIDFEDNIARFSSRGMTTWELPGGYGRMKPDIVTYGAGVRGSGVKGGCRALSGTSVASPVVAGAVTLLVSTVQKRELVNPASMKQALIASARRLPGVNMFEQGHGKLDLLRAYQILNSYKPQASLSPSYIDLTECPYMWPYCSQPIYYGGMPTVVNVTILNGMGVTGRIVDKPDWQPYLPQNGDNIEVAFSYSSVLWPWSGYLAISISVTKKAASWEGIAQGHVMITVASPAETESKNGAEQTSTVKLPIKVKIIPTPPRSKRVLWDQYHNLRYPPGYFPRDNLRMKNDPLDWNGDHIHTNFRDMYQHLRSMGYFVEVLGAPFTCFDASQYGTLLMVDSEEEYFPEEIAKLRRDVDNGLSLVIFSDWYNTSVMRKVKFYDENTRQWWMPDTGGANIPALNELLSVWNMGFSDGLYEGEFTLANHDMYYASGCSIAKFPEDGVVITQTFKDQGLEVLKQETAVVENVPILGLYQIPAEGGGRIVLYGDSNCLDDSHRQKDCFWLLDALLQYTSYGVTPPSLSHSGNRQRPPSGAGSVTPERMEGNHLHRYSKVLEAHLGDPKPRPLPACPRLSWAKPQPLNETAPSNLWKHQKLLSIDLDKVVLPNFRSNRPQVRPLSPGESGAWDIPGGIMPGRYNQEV

B1: S1P_(ecto)-3xFLAG, matured C-form (enzyme, UniProt Q14703 187-998)
chain: T3 sequence (looked up)
modifications: N-linked glycan at N515
- binding [1]: binds
- binding [2]: binds
- binding [3]: binds
- binding [4]: binds

B2: FLAG-S1P_(ecto)-His10, matured C-form (enzyme, UniProt Q14703 187-998)
chain: T3 sequence (looked up)
- binding [5]: binds

B3: B-form S1P_(ecto) (FLAG-S1P_(ecto)-His10 with the C' and C sites mutated) (enzyme, UniProt Q14703 138-998)
chain: YAESDPTVPCNETRWSQKWQSSRPLAAASLSLGSGFWHATGRHSSAALLRAIPRQVAQTLQADVLWQMGYTGANVRVAVFDTGLSEKHPHFKNVKERTNWTNERTLDDGLGHGTFVAGVIASMRECQGFAPDAELHIFRVFTNNQVSYTSWFLDAFNYAILKKIDVLNLSIGGPDFMDHPFVDKVWELTANNVIMVSAIGNDGPLYGTLNNPADQMDVIGVGGIDFEDNIARFSSRGMTTWELPGGYGRMKPDIVTYGAGVRGSGVKGGCRALSGTSVASPVVAGAVTLLVSTVQKRELVNPASMKQALIASARRLPGVNMFEQGHGKLDLLRAYQILNSYKPQASLSPSYIDLTECPYMWPYCSQPIYYGGMPTVVNVTILNGMGVTGRIVDKPDWQPYLPQNGDNIEVAFSYSSVLWPWSGYLAISISVTKKAASWEGIAQGHVMITVASPAETESKNGAEQTSTVKLPIKVKIIPTPPRSKRVLWDQYHNLRYPPGYFPRDNLRMKNDPLDWNGDHIHTNFRDMYQHLRSMGYFVEVLGAPFTCFDASQYGTLLMVDSEEEYFPEEIAKLRRDVDNGLSLVIFSDWYNTSVMRKVKFYDENTRQWWMPDTGGANIPALNELLSVWNMGFSDGLYEGEFTLANHDMYYASGCSIAKFPEDGVVITQTFKDQGLEVLKQETAVVENVPILGLYQIPAEGGGRIVLYGDSNCLDDSHRQKDCFWLLDALLQYTSYGVTPPSLSHSGNRQRPPSGAGSVTPERMEGNHLHRYSKVLEAHLGDPKPRPLPACPRLSWAKPQPLNETAPSNLWKHQKLLSIDLDKVVLPNFRSNRPQVRPLSPGESGAWDIPGGIMPGRYNQEV
- binding [5]: binds

B4: FLAG-S1P_(ecto)^S414A-His10 (A-form) (enzyme, UniProt Q14703 23-998)
chain: DRLEKKSFEKAPCPGCSHLTLKVEFSSTVVEYEYIVAFNGYFTAKARNSFISSALKSSEVDNWRIIPRNNPSSDYPSDFEVIQIKEKQKAGLLTLEDHPNIKRVTPQRKVFRSLKYAESDPTVPCNETRWSQKWQSSRPLRRASLSLGSGFWHATGRHSSRRLLRAIPRQVAQTLQADVLWQMGYTGANVRVAVFDTGLSEKHPHFKNVKERTNWTNERTLDDGLGHGTFVAGVIASMRECQGFAPDAELHIFRVFTNNQVSYTSWFLDAFNYAILKKIDVLNLSIGGPDFMDHPFVDKVWELTANNVIMVSAIGNDGPLYGTLNNPADQMDVIGVGGIDFEDNIARFSSRGMTTWELPGGYGRMKPDIVTYGAGVRGSGVKGGCRALSGTAVASPVVAGAVTLLVSTVQKRELVNPASMKQALIASARRLPGVNMFEQGHGKLDLLRAYQILNSYKPQASLSPSYIDLTECPYMWPYCSQPIYYGGMPTVVNVTILNGMGVTGRIVDKPDWQPYLPQNGDNIEVAFSYSSVLWPWSGYLAISISVTKKAASWEGIAQGHVMITVASPAETESKNGAEQTSTVKLPIKVKIIPTPPRSKRVLWDQYHNLRYPPGYFPRDNLRMKNDPLDWNGDHIHTNFRDMYQHLRSMGYFVEVLGAPFTCFDASQYGTLLMVDSEEEYFPEEIAKLRRDVDNGLSLVIFSDWYNTSVMRKVKFYDENTRQWWMPDTGGANIPALNELLSVWNMGFSDGLYEGEFTLANHDMYYASGCSIAKFPEDGVVITQTFKDQGLEVLKQETAVVENVPILGLYQIPAEGGGRIVLYGDSNCLDDSHRQKDCFWLLDALLQYTSYGVTPPSLSHSGNRQRPPSGAGSVTPERMEGNHLHRYSKVLEAHLGDPKPRPLPACPRLSWAKPQPLNETAPSNLWKHQKLLSIDLDKVVLPNFRSNRPQVRPLSPGESGAWDIPGGIMPGRYNQEV
- binding [5]: no binding

B5: SPRING_(ecto)^R174A (HA-tagged) (domain or fragment, UniProt Q9H741 36-205)
chain: T1 sequence with R139A
- binding [6]: no binding
